# This is one part of the list. The main result of the screen is listed elsewhere. These columns were measured beside it and carry no call.
# Tests used:
# Assay in all cases: Primary Screen for Target Class Profiling of Small Molecule Inhibitors of Methyltransferases
# [1] = biological target: Glycine N-methyltransferase (Homo sapiens) (UniProt Q14749); details: purified enzyme, MTase-Glo SAH luminescence; measured here: GNMT inhibition; at 40 µM; stronger effect = lower value
# How it was run: (§1)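 Each enzyme was reacted with SAM and its substrate, with compounds tested once at 40 uM; SAH formed was read by MTase-Glo luminescence.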
# [2] = biological target: Guanidinoacetate N-methyltransferase (Homo sapiens) (UniProt Q14353); details: purified enzyme, MTase-Glo SAH luminescence; measured here: GAMT inhibition; at 40 µM; stronger effect = lower value
# How it was run: as §1
# [3] = biological target: Histamine N-methyltransferase (Homo sapiens) (UniProt P50135); details: purified enzyme, MTase-Glo SAH luminescence; measured here: HNMT inhibition; at 40 µM; stronger effect = lower value
# How it was run: as §1
# [4] = biological target: Nicotinamide N-methyltransferase (Homo sapiens) (UniProt P40261); details: purified enzyme, MTase-Glo SAH luminescence; measured here: NNMT inhibition; at 40 µM; stronger effect = lower value
# How it was run: as §1
# [5] = biological target: Phenylethanolamine N-methyltransferase (Homo sapiens) (UniProt P11086); details: purified enzyme, MTase-Glo SAH luminescence; measured here: PNMT inhibition; at 40 µM; stronger effect = lower value
# How it was run: as §1
# % is scaled to controls: 0 for no effect and ±100 for the full control effect.
Compound,"activity change, negative = inhibition [1] [%]","activity change, negative = inhibition [2] [%]","activity change, negative = inhibition [3] [%]","activity change, negative = inhibition [4] [%]","activity change, negative = inhibition [5] [%]"
Cc1ccc(C(=O)Cn2nc3n(CCCOC(C)C)c(=O)c4ccccc4n3c2=O)cc1,1.68,0,6.03,-0.114,3.3
CC1(C(=O)NC2CCCCCC2)Cn2nc(-c3ccco3)cc2C(=O)N1Cc1ccccc1Cl (stereo not drawn),-1.63,0,1.04,-0.324,-1.97
O=C(CCN1CCCCO1)N1CCOC(CCCc2ccccc2)C1 (stereo not drawn),1.25,-3.24,2.5,1.53,3.46
CCCN1C(=O)c2cc(C(=O)NCCOC)nn2CC1(C)C(=O)NC1CCCC1 (stereo not drawn),2.81,0,3.99,2.59,0.807
Cc1cc(C)n(CC(=O)N2CCC(c3nc(CCOCC4CCCC4)no3)C2)n1 (stereo not drawn),1.58,2.19,2.15,0.097,4.04
CC(C)CN1C(=O)c2cccn2CC1C(=O)N(C)Cc1cccnc1 (stereo not drawn),-4.68,-3.65,-3.05,-4.79,2.63
CC(C)(C)c1cc2n(n1)CC(C)(C(=O)NC1CCCCCC1)N(Cc1ccc3c(c1)OCO3)C2=O (stereo not drawn),2.25,2.68,6.76,-5.16,-0.405
CN1C(=O)c2cc(C(=O)NCc3ccc(F)cc3)nn2CC1(C)C(=O)NC1CCCC1 (stereo not drawn),0.314,2.71,-4.06,2.75,-1.87
COC1CCN(CC2CCCCCN2)CC1 (stereo not drawn),-4.65,-2.38,0.965,-2.51,-15.1
Cc1cccc(CC(=O)N2CCCCC2c2nc(C3CC3)n[nH]2)c1 (stereo not drawn),-4.05,-11.5,-5.92,-7.55,-8.32
OC1(c2ccc(Cl)c(C(F)(F)F)c2)CCN(CCCC(c2ccc(F)cc2)c2ccc(F)cc2)CC1,3.81,-6,1.26,-23.2,-10.6
CN(C)c1ccc(Nc2c3ccc(NC(=O)CCN4CCCC4)cc3nc3cc(NC(=O)CCN4CCCC4)ccc23)cc1,–,-1.16,–,-52.3,-33.3
COC(=O)Cn1c(=O)oc2cc(S(=O)(=O)NCCc3cccs3)ccc21,-2.51,0,2.8,-2.35,-0.118
COc1ncccc1-c1nccn2c(C3CN(Cc4ccccc4O)C3)ncc12,-6.98,-6.74,-86.6,-17.6,-9.23
O=c1[nH]ccc2nc(-c3ccc(CN4CCC(c5nc(-c6ccccn6)n[nH]5)CC4)cc3)c(-c3ccccc3)cc12,-48.4,-23.1,-14.2,-71.4,-39.1
CCCN1C(=O)c2cc(C(=O)N3CCN(c4ccccc4)CC3)nn2CC1(C)C(=O)NC1CCCC1 (stereo not drawn),-2.46,2.03,3.95,-2.78,-2.14
Cc1cccc(NC(=O)Cn2nc3n(C(C)C)c(=O)c4ccc(C(=O)NCC(C)C)cc4n3c2=O)c1,-0.089,3.73,3.59,2.32,4.41

# — PubChem BioAssay AID1745853 (National Center for Advancing Translational Sciences (NCATS), 2022)
